Measurements: paper PMC11995724, “Antibiotic target discovery by integrated phenotypic and activity-based profiling of electrophilic fragments” (Cell chemical biology, 2025)
In all, about 3,200 compounds went through this assay and about 75 (2%) showed an effect of 50% or more. The list shows a part of the results.

tested on: T1, S. aureus MSSA476; parameters: species or system S. aureus MSSA476 (TSB) or V. cholerae SAD30 (LB); 384-well bacterial growth screen at 25 uM, OD600 relative to DMSO control; settings: relative growth, OD600, TSB; 25 µM; inhibitor
T1 construct: MSSA476

In order of falling “% of control remaining” value:
1. C=CC(=O)NCCN1CCn2nccc2C1 [3-F21, N-(2-{4H,5H,6H,7H-pyrazolo[1,5-a]pyrazin-5-yl}ethyl)prop-2-enamide]  140.357%
2. CCc1nc2c(s1)C(N(C)C(=O)C(C)Cl)CCC2 (centres unmarked) [7-N17, 2-chloro-N-(2-ethyl-4,5,6,7-tetrahydro-1,3-benzothiazol-7-yl)-N-methylpropanamide]  126.845%
3. COC(=O)c1sccc1N1C(=O)C=CC1=O [10-A07, methyl 3-(2,5-dioxo-2,5-dihydro-1H-pyrrol-1-yl)thiophene-2-carboxylate]  125.625%
4. CNC(=O)c1ccc(O)c(NC(=O)CCl)c1 [5-C10, 3-(2-chloroacetamido)-4-hydroxy-N-methylbenzamide]  124.59%
5. CC(=O)NCCc1ccc(C(=O)CCl)cc1 [10-N03, N-{2-[4-(2-chloroacetyl)phenyl]ethyl}acetamide]  113.125%
6. Cc1ccc(C)c(N2C(=O)C=CC2=O)c1 [10-F13, 1-(2,5-dimethylphenyl)-2,5-dihydro-1H-pyrrole-2,5-dione]  112.813%
7. CCC(NC(=O)CCl)c1cccc(OC)n1 (centres unmarked) [7-D08, 2-chloro-N-[1-(6-methoxypyridin-2-yl)propyl]acetamide]  112.088%
8. Cc1ccc(NC(=O)CCl)cc1S(=O)(=O)N1CCOCC1 [4-L07, 2-chloro-N-[4-methyl-3-(morpholine-4-sulfonyl)phenyl]acetamide]  107.861%
9. C=CC(=O)N(C)CC(=O)NC1CCN(C(=O)c2ccc(C)cc2)CC1 [2-N14, N-methyl-N-({[1-(4-methylbenzoyl)piperidin-4-yl]carbamoyl}methyl)prop-2-enamide]  106.876%
10. O=CN1CCN(C(=O)CCl)CC1 [6-M17, 4-(2-chloroacetyl)piperazine-1-carbaldehyde]  105.512%
11. C=CC(=O)NCc1nc(OC)cc(OC)n1 [2-M20, N-[(4,6-dimethoxypyrimidin-2-yl)methyl]prop-2-enamide]  103.046%
12. Cc1cc(C(C)N(Cc2c(C)noc2C)C(=O)CCl)c(C)o1 (centres unmarked) [5-E16, 2-chloro-N-[(3,5-dimethyl-1,2-oxazol-4-yl)methyl]-N-[1-(2,5-dimethylfuran-3-yl)ethyl]acetamide]  102.368%
13. O=C(CCl)NCc1cn[nH]c1C(F)F [7-D05, 2-chloro-N-{[5-(difluoromethyl)-1H-pyrazol-4-yl]methyl}acetamide]  102.041%
14. CC(C#N)CSc1ccccc1NC(=O)CCl (centres unmarked) [6-K16, 2-chloro-N-{2-[(2-cyano-2-methylethyl)sulfanyl]phenyl}acetamide]  101.756%
15. C=CC(=O)Nc1ncc(-c2cccc(C)c2)s1 [1-P14, N-[5-(3-methylphenyl)-1,3-thiazol-2-yl]prop-2-enamide]  101.275%
16. N#CC(=Cc1ccc([N+](=O)[O-])cc1)C(=O)Nc1ccc(Cl)cc1 [8-O11, N-(4-chlorophenyl)-2-cyano-3-(4-nitrophenyl)prop-2-enamide]  100.581%
17. CC(Cl)C(=O)N1CCN(Cc2cnn(-c3ccccc3)c2)CC1 (centres unmarked) [7-F13, 2-chloro-1-{4-[(1-phenyl-1H-pyrazol-4-yl)methyl]piperazin-1-yl}propan-1-one]  98.2732%
18. C=CC(=O)N1CCC(C(=O)NC2CCc3ncnn3C2)CC1 (centres unmarked) [2-P20, 1-(prop-2-enoyl)-N-{5H,6H,7H,8H-[1,2,4]triazolo[1,5-a]pyridin-6-yl}piperidine-4-carboxamide]  98.1723%
19. COc1cc(OC)c(NC(=O)CCl)cc1Cl [4-G11, 2-chloro-N-(5-chloro-2,4-dimethoxyphenyl)acetamide]  97.1891%
20. C=CC(=O)NC1CC2CCC(C1)S2 (centres unmarked) [1-B06, N-{8-thiabicyclo[3.2.1]octan-3-yl}prop-2-enamide]  97.0549%
21. CC(Cl)C(=O)NCc1nnnn1CC1CC1 (centres unmarked) [6-F14, 2-chloro-N-{[1-(cyclopropylmethyl)-1H-1,2,3,4-tetrazol-5-yl]methyl}propanamide]  96.9756%
22. N#CC(=Cc1ccc(Oc2cnccn2)cc1)C(=O)NC1CCCC1 [9-F20, 2-cyano-N-cyclopentyl-3-[4-(pyrazin-2-yloxy)phenyl]prop-2-enamide]  95.2809%
23. COc1ccc(Cl)cc1C(O)CNC(=O)CCl (centres unmarked) [7-N06, 2-chloro-N-[2-(5-chloro-2-methoxyphenyl)-2-hydroxyethyl]acetamide]  93.5636%
24. Cc1ccc(C)c(-c2cc(NC(=O)CCl)n(-c3ccccc3)n2)c1 [4-M14, 2-chloro-N-[3-(2,5-dimethylphenyl)-1-phenyl-1H-pyrazol-5-yl]acetamide]  83.8495%
25. CC(Cl)C(=O)N1CCC(c2nc(C3CC3)no2)(C(F)(F)F)C1 (centres unmarked) [7-K12, 2-chloro-1-[3-(3-cyclopropyl-1,2,4-oxadiazol-5-yl)-3-(trifluoromethyl)pyrrolidin-1-yl]propan-1-one]  83.8305%
26. C=CC(=O)N(CC)CC(=O)N1CCC(c2nncn2C)CC1 [2-L10, N-ethyl-N-{2-[4-(4-methyl-4H-1,2,4-triazol-3-yl)piperidin-1-yl]-2-oxoethyl}prop-2-enamide]  78.6771%
27. CC(Cl)C(=O)N1CCN(C)C(c2nc(C3CC3)no2)C1 (centres unmarked) [7-I08, 2-chloro-1-[3-(3-cyclopropyl-1,2,4-oxadiazol-5-yl)-4-methylpiperazin-1-yl]propan-1-one]  77.865%
28. CCC(c1cc(Cl)cc(Cl)c1)N(C)C(=O)CCl (centres unmarked) [7-L10, 2-chloro-N-[1-(3,5-dichlorophenyl)propyl]-N-methylacetamide]  75.0392%
29. Cc1cc(C)c(NC(=O)C(C#N)=Cc2ccccc2)c(C)c1 [8-E19, 2-cyano-3-phenyl-N-(2,4,6-trimethylphenyl)prop-2-enamide]  71.3693%
